{
  "source": "the supplement of paper PMC8728848",
  "assay_in_all_cases": "glycan array binding signal (z-score within array); higher = stronger binding",
  "settings_in_all_cases": "glycan notation: IUPAC condensed, linker removed",
  "key": {"Fuc(a1-3)GlcNAc": {"target": "Fuc(a1-3)GlcNAc", "how_it_was_run": "(§1)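 Glycan array data were curated from 3228 arrays in the Consortium for Functional Glycomics database and kept only where the protein sequence was available. Glycan names were converted to IUPAC-condensed notation, and columns mapping to the same glycan were averaged. The binding signal is a within-array Z-score, averaged across arrays of the same protein sequence at different concentrations or buffers and across linkers. Negative Z-scores can be read as non-binding.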"}, "[1]": {"target": "Fuc(a1-3)[Gal(b1-4)]Glc6S", "how_it_was_run": "as §1"}, "[2]": {"target": "Fuc(a1-3)[Gal(b1-4)]GlcNAc", "how_it_was_run": "as §1"}, "[3]": {"target": "Fuc(a1-3)[Gal(b1-4)]GlcNAc(b1-2)Man", "how_it_was_run": "as §1"}, "[4]": {"target": "Fuc(a1-3)[Gal(b1-4)]GlcNAc(b1-2)Man(a1-3)[Fuc(a1-3)[Gal(b1-4)]GlcNAc(b1-2)Man(a1-6)]Man(b1-4)GlcNAc(b1-4)GlcNAc", "how_it_was_run": "as §1"}, "[5]": {"target": "Fuc(a1-3)[Gal(b1-4)]GlcNAc(b1-2)Man(a1-3)[Fuc(a1-3)[Gal(b1-4)]GlcNAc(b1-2)Man(a1-6)]Man(b1-4)GlcNAc(b1-4)[Fuc(a1-6)]GlcNAc", "how_it_was_run": "as §1"}, "[6]": {"target": "Fuc(a1-3)[Gal(b1-4)]GlcNAc(b1-3)Gal(b1-3)[Fuc(a1-4)]GlcNAc", "how_it_was_run": "as §1"}, "[7]": {"target": "Fuc(a1-3)[Gal(b1-4)]GlcNAc(b1-3)Gal(b1-4)[Fuc(a1-3)]GlcNAc", "how_it_was_run": "as §1"}, "[8]": {"target": "Fuc(a1-3)[Gal(b1-4)]GlcNAc(b1-3)Gal(b1-4)[Fuc(a1-3)]GlcNAc(b1-3)Gal(b1-4)[Fuc(a1-3)]GlcNAc", "how_it_was_run": "as §1"}, "[9]": {"target": "Fuc(a1-3)[Gal(b1-4)]GlcNAc(b1-3)GalNAc", "how_it_was_run": "as §1"}, "[10]": {"target": "Fuc(a1-3)[Gal(b1-4)]GlcNAc(b1-6)GalNAc", "how_it_was_run": "as §1"}, "[11]": {"target": "Fuc(a1-3)[Gal(b1-4)]GlcNAc(b1-6)[Gal(b1-3)GlcNAc(b1-3)]Gal(b1-4)Glc", "how_it_was_run": "as §1"}, "[12]": {"target": "Fuc(a1-3)[Gal(b1-4)]GlcNAc6S", "how_it_was_run": "as §1"}, "[13]": {"target": "Fuc(a1-3)[Gal3S(b1-4)]Glc", "how_it_was_run": "as §1"}, "[14]": {"target": "Fuc(a1-3)[Gal3S(b1-4)]GlcNAc", "how_it_was_run": "as §1"}, "[15]": {"target": "Fuc(a1-3)[Gal3S(b1-4)]GlcNAc6S", "how_it_was_run": "as §1"}, "[16]": {"target": "Fuc(a1-3)[GalNAc(b1-4)]GlcNAc", "how_it_was_run": "as §1"}, "[17]": {"target": "Fuc(a1-3)[GalNAc(b1-4)]GlcNAc6S", "how_it_was_run": "as §1"}, "Fuc(a1-4)GlcNAc": {"target": "Fuc(a1-4)GlcNAc", "how_it_was_run": "as §1"}, "Fuc(b1-3)GlcNAc": {"target": "Fuc(b1-3)GlcNAc", "how_it_was_run": "as §1"}, "Gal(a1-2)Gal": {"target": "Gal(a1-2)Gal", "how_it_was_run": "as §1"}, "Gal(a1-3)Gal": {"target": "Gal(a1-3)Gal", "how_it_was_run": "as §1"}, "Gal(a1-3)Gal(b1-3)GlcNAc": {"target": "Gal(a1-3)Gal(b1-3)GlcNAc", "how_it_was_run": "as §1"}, "[18]": {"target": "Gal(a1-3)Gal(b1-3)GlcNAc(b1-2)Man", "how_it_was_run": "as §1"}, "[19]": {"target": "Gal(a1-3)Gal(b1-3)GlcNAc(b1-2)Man(a1-3)[Gal(a1-3)Gal(b1-3)GlcNAc(b1-2)Man(a1-6)]Man(b1-4)GlcNAc(b1-4)GlcNAc", "how_it_was_run": "as §1"}, "[20]": {"target": "Gal(a1-3)Gal(b1-3)GlcNAc(b1-3)GalNAc", "how_it_was_run": "as §1"}, "[21]": {"target": "Gal(a1-3)Gal(b1-3)GlcNAc(b1-6)GalNAc", "how_it_was_run": "as §1"}, "[22]": {"target": "Gal(a1-3)Gal(b1-3)[Fuc(a1-4)]GlcNAc(b1-2)Man(a1-3)[Gal(a1-3)Gal(b1-3)[Fuc(a1-4)]GlcNAc(b1-2)Man(a1-6)]Man(b1-4)GlcNAc(b1-4)GlcNAc", "how_it_was_run": "as §1"}, "Gal(a1-3)Gal(b1-4)Glc": {"target": "Gal(a1-3)Gal(b1-4)Glc", "how_it_was_run": "as §1"}, "Gal(a1-3)Gal(b1-4)GlcNAc": {"target": "Gal(a1-3)Gal(b1-4)GlcNAc", "how_it_was_run": "as §1"}},
  "note": "The list shows a part of the results.",
  "data": [
    {"binder": "PNGase F (Flavobacterium meningosepticum) (protein) GIPAPADNTVNIKTFDKVKNAFGDGLSQSAEGTFTFPADVTAVKTIKMFIKNECPNKTCDEWDRYANVYVKNKTTGEWYEIGRFITPYWVGTEKLPRGLEIDVTDFKSLLSGNTELKIYTETWLAKGREYSVDFDIVYGTPDYKYSAVVPVVQYNKSSIDGVPYGKAHTLALKKNIQLPTNTEKAYLRTTISGWGHAKPYDAGSRGCAEWCFRTHTIAINNSNTFQHQLGALGCSANPINNQSPGNWTPDRAGWCPGMAVPTRIDVLNNSLIGSTFSYEYKFQNWTNNGTNGDAFYAISSFVIAKSNTPISAPVVTNLDPHHHHHH", "values": [
      {"measurement": "glycan array binding signal (z-score)", "setting": "Fuc(a1-3)GlcNAc", "value": 0.009},
      {"measurement": "glycan array binding signal (z-score)", "setting": "[1]", "value": 0.669},
      {"measurement": "glycan array binding signal (z-score)", "setting": "[2]", "value": 0.02},
      {"measurement": "glycan array binding signal (z-score)", "setting": "[3]", "value": 0.163},
      {"measurement": "glycan array binding signal (z-score)", "setting": "[4]", "value": -0.072},
      {"measurement": "glycan array binding signal (z-score)", "setting": "[5]", "value": -0.2},
      {"measurement": "glycan array binding signal (z-score)", "setting": "[6]", "value": 0.434},
      {"measurement": "glycan array binding signal (z-score)", "setting": "[7]", "value": 0.008},
      {"measurement": "glycan array binding signal (z-score)", "setting": "[8]", "value": -0.298},
      {"measurement": "glycan array binding signal (z-score)", "setting": "[9]", "value": -0.16},
      {"measurement": "glycan array binding signal (z-score)", "setting": "[10]", "value": -0.166},
      {"measurement": "glycan array binding signal (z-score)", "setting": "[11]", "value": -0.308},
      {"measurement": "glycan array binding signal (z-score)", "setting": "[12]", "value": 0.583},
      {"measurement": "glycan array binding signal (z-score)", "setting": "[13]", "value": 0.12},
      {"measurement": "glycan array binding signal (z-score)", "setting": "[14]", "value": 0.04},
      {"measurement": "glycan array binding signal (z-score)", "setting": "[15]", "value": -0.123},
      {"measurement": "glycan array binding signal (z-score)", "setting": "[16]", "value": 0.369},
      {"measurement": "glycan array binding signal (z-score)", "setting": "[17]", "value": -0.207},
      {"measurement": "glycan array binding signal (z-score)", "setting": "Fuc(a1-4)GlcNAc", "value": 2.72},
      {"measurement": "glycan array binding signal (z-score)", "setting": "Fuc(b1-3)GlcNAc", "value": 0.462},
      {"measurement": "glycan array binding signal (z-score)", "setting": "Gal(a1-2)Gal", "value": 0.486},
      {"measurement": "glycan array binding signal (z-score)", "setting": "Gal(a1-3)Gal", "value": 0.537},
      {"measurement": "glycan array binding signal (z-score)", "setting": "Gal(a1-3)Gal(b1-3)GlcNAc", "value": -0.208},
      {"measurement": "glycan array binding signal (z-score)", "setting": "[18]", "value": -0.138},
      {"measurement": "glycan array binding signal (z-score)", "setting": "[19]", "value": 0.192},
      {"measurement": "glycan array binding signal (z-score)", "setting": "[20]", "value": 0.102},
      {"measurement": "glycan array binding signal (z-score)", "setting": "[21]", "value": -0.276},
      {"measurement": "glycan array binding signal (z-score)", "setting": "[22]", "value": 0.401},
      {"measurement": "glycan array binding signal (z-score)", "setting": "Gal(a1-3)Gal(b1-4)Glc", "value": 0.116},
      {"measurement": "glycan array binding signal (z-score)", "setting": "Gal(a1-3)Gal(b1-4)GlcNAc", "value": -0.277}
    ]}
  ]
}
